Test results as given in the supplement of paper PMC4466236.
Whole data set: some 33,000 sequences, median “E-score (dimensionless, -0.5 to 0.5)” near -0.058, cut for the highest 2% near 0.35. Some of the results follow.

tested on: MvaT; test: PBM 8-mer E-score (mean of HK and ME arrays) (E-score (dimensionless, -0.5 to 0.5)); higher = stronger relative binding preference; most listed sequences are background and not binding sites
Summary of the method: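 Full-length P. aeruginosa MvaT carrying an N-terminal glutathione S-transferase tag was tested by protein binding microarray following a previously described protocol. Two universal double-stranded 60-mer arrays, ME and HK, were used, each with a constant 25-mer primer region and a variable 35-mer region covering all 8-mers. The rank-based E-score is the mean of the two arrays, parsed with a custom script. Its range runs from -0.5 to 0.5 for each 8-mer.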

Sequence	PBM 8-mer E-score
CTATTTTA	0.261
ATCGTTAA	0.247
GTTACACA	0.0952
AGGGTTCA	-0.0718
CGTTACAG	0.0767
CTCTATTA	0.267
CAGAGGGG	-0.244
ACTGTACT	0.0725
ATAATAGG	0.291
ATCATGTC	0.0438
CGTTGGCC	-0.25
ACCCTGTA	-0.127
AAGGCTAG	-0.107
ACTAAGCG	0.0156
ATCGCAGA	-0.185
ATCGTTTG	-0.00462
AATGATAG	0.17
GCCAAAGC	-0.302
GACTACAC	-0.0579
GTGAGTGA	0.00485
ACCCTAAC	-0.0407
ATCTCAGC	-0.162

Sequence	PBM 8-mer E-score
AAAGCCAT	-0.111
CGCATTCC	-0.0892
AAATGGTC	-0.0709
TACCGACA	0.0693
TACGGAAA	0.0573
CGTGCCCA	-0.0852
CACGGCAA	0.0842
CACAGGGC	-0.199
AACATCAG	0.0669
GGGTCTAC	-0.203
GGATAGCA	-0.13
CTTCCTAC	-0.199
CTGTTAGA	0.00455
GGTCAGGA	-0.122
GAACCAGC	-0.102
ATAGTGTG	0.179
GCACCTGC	-0.282
CTAACTTA	0.379
ACCTAAAT	0.136
CACGGATC	-0.196
CGATCATA	0.167
GAGGAAAA	-0.134

Sequence	PBM 8-mer E-score
AACGGTCT	-0.0665
AAACACTG	0.132
CAGGTCAA	-0.00751
GGACGCCC	-0.376
TGGTGAAA	0.0106
AAGGTAGG	-0.107
CCAGGTCG	-0.171
ACGCGCTA	0.13
ATCTGCGC	-0.0527
GCATGCAA	0.101
TAAAACCA	0.176
CTGCAGCA	-0.157
CGCCGCCC	-0.334
CTTCAGTA	-0.0541
CAGGCAAG	-0.116
ACAGTCGC	-0.0394
AGCCCATC	-0.146
ACGACACT	0.0503
CCACTCTC	-0.0989
CCGACCAA	-0.0461
GGGCAGCA	-0.139
AGGCTCGA	-0.246

Sequence	PBM 8-mer E-score
CCACGGCG	-0.3
TGGCCCAA	-0.248
GCAAGACA	-0.0189
GTTAATAA	0.377
CTGTCGAC	-0.0262
ATTCTAGA	0.161
ACGTCGTA	-0.0795
ACGAGTGG	-0.0751
AGTGATTG	-0.0609
CCGGTGGA	-0.173
AATCCAGG	-0.169
AATGCGAT	0.0892
ACAGACGA	-0.0669
CGTAGTAA	0.0808
ACCTAGCA	-0.0765
CCAAAGGC	-0.237
AAGATATG	0.136
GAAGGCAA	-0.252
TCCGAGCA	-0.0557
CCGTCACG	-0.177
ACGTCAGC	-0.156
AGCCAATC	-0.00652

Sequence	PBM 8-mer E-score
GCTATGAC	-0.196
AGGGCCAA	-0.211
GAGTGGAA	-0.0786
AGGAGCAA	-0.265
CTAGCTCA	-0.255
CATGGATC	-0.101
AGTATGCC	0.0426
GATAGTTA	0.311
AATTCGAA	0.273
CTGGTCGA	-0.0624
GCACATAC	0.0384
ACGTCTCA	-0.161
ACGGTTTC	-0.215
GCCCGATA	-0.0689
CCGCAAAG	-0.132
CACGTGAG	-0.25
GCTACAAA	0.0198
ACGTTGAA	0.0445
ATGCAACC	0.0111
TGTCAGAA	0.0626
AAGTTCGG	0.18
